{
  "source": "the supplement of paper PMC8728848",
  "binders": {"B1": {"name": "CaSRK1 (Capsicum annuum) (protein)", "chain": "MALCKIFPFAFILLSCSCYLISGQRFDYPTANLSTTWINSVSAPHSIDYTDGSRIRAILLRGTFGPRYACGFYCNGNCESYLFAIFIVQTNSASQITSPAIGFPQVVWSANRNNPVKINSTLQLTAEGDLVLRDADGTLAWSTNTAGKSVAGLSLTDEGNLALFDSKNATVWQSFDHPTDALVPGQKLVPGMKLTASVSRTNWTAGGLFALSAIDNGLVAFVESNPPQKYFEASVGGSNTSGGSNYVKYLNGSLTLFTHSADTTELILISITPASSAQYMKLESNGHLKVYEWTSRGWREVDDLLTGFRGECNYPTVCGRYGICTMGQCSCPTSSSSRTYFRPIDVRRPSLGCSEVTKLTCQNTKKHSPLEVEDVDYFAFKAGISDTDLNTCKRACLEKCSCKAAFFRSGLNSSRTRGDCYLPTEIFSIMNNEKDRTRYDSVAFIKVQV"}},
  "biological_target": "Neu5Gc(b2-6)Gal(b1-4)GlcNAc",
  "test": "glycan array binding signal (z-score within array); higher = stronger binding",
  "conditions": "glycan notation: IUPAC condensed, linker removed",
  "how_it_was_run": "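Negative Z-scores can be read as non-binding. The Z-score is calculated within each array and then averaged across arrays of one protein sequence at different concentrations or buffers and across linkers. Arrays, 3228 in all, were curated from the Consortium for Functional Glycomics database and kept only where the protein sequence was available.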",
  "note": "The list shows a part of the results.",
  "data": [
    {"binder": "B1", "values": [
      {"measurement": "glycan array binding signal (z-score)", "value": -0.486}
    ]}
  ]
}
